From paper PMC5681660, “Reduced hepatitis B and D viral entry using clinically applied drugs as novel inhibitors of the bile acid transporter NTCP” (Scientific Reports, 2017)
Counter-ions that a name gives are not always drawn. Like-named read-outs stand apart in the source and are kept apart here. Non-standard residues stand in square brackets, D forms with d. Residues, ends and D or L forms follow the SMILES beside them. pGlu = O=C1CC[C@@H](C(=O)O)N1; Thz = O=C(O)[C@@H]1CSCN1

Assays:
[1] = biological target: T1, human NTCP (Homo sapiens, UniProt Q14973); assay: Screening taurocholate uptake assay (96-well, [14C]taurocholate, 10 µM drug); conditions: for remaining activity at 10 µM: 10 min, read-out: %NTCP activity
T1 sequence (Q14973 1-349): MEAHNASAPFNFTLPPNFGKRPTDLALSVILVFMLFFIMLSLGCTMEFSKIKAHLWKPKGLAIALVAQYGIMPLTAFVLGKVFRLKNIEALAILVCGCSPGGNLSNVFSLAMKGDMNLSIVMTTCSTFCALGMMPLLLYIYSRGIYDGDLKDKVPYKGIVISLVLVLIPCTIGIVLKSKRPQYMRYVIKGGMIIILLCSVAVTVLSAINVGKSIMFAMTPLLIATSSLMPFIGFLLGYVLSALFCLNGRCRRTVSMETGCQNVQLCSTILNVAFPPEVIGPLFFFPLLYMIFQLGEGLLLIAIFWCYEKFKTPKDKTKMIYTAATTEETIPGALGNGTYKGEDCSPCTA

[2] = biological target: T1, human NTCP; assay: Screening fluorescent competitive Myrcludex B-FITC binding assay (96-well, 10 µM drug)
[3] = Prestwick library screen, 10 µM drug, Myrcludex B-FITC binding
[4] = Prestwick library screen, [14C]taurocholate uptake, 10 µM drug
[5] = Prestwick library screen, Myrcludex B-FITC binding, 10 µM drug

Compound | remaining activity at 10 µM [1] | remaining activity at 10 µM ([2]; 0.5 h, read-out: %NTCP binding) | also measured
CC(=O)Oc1ccccc1C(=O)Oc1ccccc1C(=O)O [Acetylsalicylsalicylic acid] | 66.3% |  | remaining activity at 10 µM ([2]; 0.5 h, read-out: %NTCP binding, Prestwick library screen, Myrcludex B-FITC binding, 10 µM drug): 90.7%
Nc1ccc(S(=O)(=O)[N-]c2cnc3ccccc3n2)cc1.[Na+] [Sulfaquinoxaline sodium salt] |  |  | %NTCP activity ([1]; Prestwick library screen, 10 µM drug, [14C]taurocholate uptake): 115.286%; %NTCP binding [2, 3]: 111.512%
CC(=O)O[C@H]1C[C@@]2(C)[C@@H](C[C@@H](O)[C@H]3[C@@]4(C)CC[C@@H](O)[C@@H](C)[C@@H]4CC[C@@]32C)/C1=C(\CCC=C(C)C)C(=O)O [Fusidic acid sodium salt] | 60.7% | 49.9% | 
Nc1nc(F)nc2c1ncn2[C@@H]1O[C@H](CO)[C@@H](O)[C@@H]1O [Fludarabine] | 118% | 107% | 
Cl.NC1CCN(c2nc3c(cc2F)c(=O)c(C(=O)O)cn3-c2ccc(F)cc2F)C1 (stereo not shown) [Tosufloxacin hydrochloride] |  |  | %NTCP activity [1, 4]: 41.1377%; %NTCP binding [2, 5]: 76.2932%
CCN(CC)C(=O)c1ccc(O)c(OC)c1 [Ethamivan] | 57.3% | 106% | 
CN(CCCN1c2ccccc2CCc2ccccc21)CC(=O)c1ccc(Cl)cc1 [Lofepramine] | 115% | 44.7% | 
CCN1CCCC(OC(=O)C(c2ccccc2)c2ccccc2)C1 (stereo not shown) [Piperidolate hydrochloride] | 107% | 62% | 
C[N+]1(C)CCC(OC(=O)C(O)(c2ccccc2)C2CCCC2)C1 (stereo not shown) [Glycopyrrolate] | 95.3% | 108% | 
CC(=O)O[C@H]1C(=O)[C@@]2(C)[C@H]([C@H](OC(=O)c3ccccc3)[C@]3(O)C[C@H](OC(=O)[C@H](O)[C@@H](NC(=O)c4ccccc4)c4ccccc4)C(C)=C1C3(C)C)[C@]1(OC(C)=O)CO[C@@H]1C[C@@H]2O [Paclitaxel] | 74.2% | 84.7% | 
C[N+](C)(C)CCCCCC[N+](C)(C)C.O.O.[Br-].[Br-] [Hexamethonium dibromide dihydrate] |  |  | %NTCP activity [1]: 87.5079%; %NTCP binding [2, 5]: 105.655%
Cc1[nH]cnc1CN1CCc2c(c3ccccc3n2C)C1=O [Alosetron hydrochloride] | 103% | 37.2% | 
C[C@]12C=CC(=O)C=C1CC[C@@H]1[C@@H]2[C@@H](O)C[C@@]2(C)[C@H]1CC[C@]2(O)C(=O)CO [Prednisolone] | 20.9% | 84% | 
CCCCNc1ccc(C(=O)OCCOCCOCCOCCOCCOCCOCCOCCOCCOC)cc1 [Benzonatate] | 124% | 119% | 
CN(Cc1cnc2nc(N)nc(N)c2n1)c1ccc(C(=O)N[C@@H](CCC(=O)O)C(=O)O)cc1 [Methotrexate] | 43.2% | 85.8% | 
CN1CCN(CCCN2c3ccccc3Sc3ccc(C(F)(F)F)cc32)CC1 [Trifluoperazine dihydrochloride] | 101% | 77.1% | 
NC(=O)N1c2ccccc2CC(=O)c2ccccc21 [Oxcarbazepine] | 42.6% | 75.2% | 
CCS(=O)(=O)CCn1c([N+](=O)[O-])cnc1C [Tinidazole] | 85.5% | 90.4% | 
CCCCc1oc2ccccc2c1C(=O)c1cc(I)c(OCCN(CC)CC)c(I)c1 [Amiodarone hydrochloride] | 37.4% | 50.7% | 
CCN(CC)C(=O)N1CCN(C)CC1 [Diethylcarbamazine citrate] | 26.2% | 70.4% | 
O=C([O-])[C@H]1/C(=C/CO)O[C@@H]2CC(=O)N21.[K+] [Clavulanate potassium salt] |  |  | %NTCP activity [1]: 71.7498%; %NTCP binding [2, 3]: 108.427%
O=C1CC[C@@H](C(=O)N2CSC[C@H]2C(=O)O)N1 [Pidotimod] ([pGlu]-[Thz]-OH) | 82.5% | 84.8% | 
O=c1[nH]c(=O)n([C@H]2C[C@H](O)[C@@H](CO)O2)cc1C(F)(F)F [Trifluridine] | 96.8% | 103% | 
C=C1/C(=C\C=C2/CCC[C@]3(C)[C@@H]([C@H](C)CCCC(C)C)CC[C@@H]23)C[C@@H](O)C[C@@H]1O [Alfacalcidol] | 114% | 85.9% | 
CC(C[N+](C)(C)C)OC(N)=O (stereo not shown) [Bethanechol chloride] | 113% | 93.2% | 
CNC(C)(C)Cc1ccccc1.CNC(C)(C)Cc1ccccc1.O=S(=O)(O)O [Mephentermine hemisulfate] |  |  | %NTCP activity [1]: 75.9589%; %NTCP binding [2, 5]: 99.8606%
O=C1c2cccc3c2[C@H](CCC3)CN1[C@@H]1CN2CCC1CC2 [Palonosetron hydrochloride] | 122% | 57.4% | 

Compound | remaining activity at 10 µM [1] | remaining activity at 10 µM ([2]; 0.5 h, read-out: %NTCP binding) | also measured
CC(=O)[C@H]1CC[C@H]2[C@@H]3CCC4=CC(=O)CC[C@]4(C)[C@H]3CC[C@]12C [Progesterone] | 61.1% | 59.8% | 
CNNCc1ccc(C(=O)NC(C)C)cc1 [Procarbazine hydrochloride] | 58.4% | 89.4% | 
C[N+]12CCC(CC1)C(OC(=O)C(O)(c1ccccc1)c1ccccc1)C2 (stereo not shown) [Clidinium bromide] | 81.8% | 118% | 
CCCCNC(=O)NS(=O)(=O)c1ccc(C)cc1 [Tolbutamide] | 112% | 63.4% | 
CCCCOC(=O)c1ccc(N)cc1 [Butamben] | 122% | 106% | 
CN1CCN2c3ncccc3Cc3ccccc3C2C1 (stereo not shown) [Mirtazapine] | 30.8% | 76% | 
CCCCNc1ccc(C(=O)OCCN(C)C)cc1.Cl [Tetracaïne hydrochloride] |  |  | %NTCP activity [1]: 103.395%; %NTCP binding [2, 3]: 90.0944%
O=C(CCCCCCC(=O)Nc1ccccc1)NO [Vorinostat] | 65.1% | 99% | 
Nc1ccc(S(=O)(=O)Nc2ccnn2-c2ccccc2)cc1 [Sulfaphenazole] | 118% | 113% | 
COc1cccc(C2(O)CCCCC2CN(C)C)c1.Cl (stereo not shown) [Tramadol hydrochloride] |  |  | %NTCP activity [1]: 92.4969%; %NTCP binding ([2]; screen, 10 µM drug, Myrcludex B-FITC binding): 75.3752%
Cl.Cl.Cl.Cl.Cl.NCCNCCNCCNCCN |  |  | %NTCP activity [1, 4]: 96.2659%; %NTCP binding [2, 5]: 85.0492%
C/C(=C(\CCOP(=O)(O)O)SC(=O)c1ccccc1)N(C=O)Cc1cnc(C)nc1N [Benfotiamine] | 70.1% | 83.2% | 
CNCC(O)c1ccc(OC(=O)C(C)(C)C)c(OC(=O)C(C)(C)C)c1 (stereo not shown) [Dipivefrin hydrochloride] | 118% | 83.3% | 
CN(C)CCCN1c2ccccc2Sc2ccccc21 [Promazine hydrochloride] | 107% | 69.1% | 
Oc1ccc2c3c1O[C@H]1[C@@H](O)CC[C@@]4(O)[C@@H](C2)N(CC2CCC2)CC[C@]314 [Nalbuphine hydrochloride] | 38.8% | 89.7% | 
NS(=O)(=O)c1cc(C2(O)NC(=O)c3ccccc32)ccc1Cl (stereo not shown) [Chlorthalidone] | 93.6% | 90.2% | 
C[C@H](N[C@@H](CCc1ccccc1)C(=O)O)C(=O)N1CCC[C@H]1C(=O)O.O.O [Enalaprilat dihydrate] |  |  | %NTCP activity [1, 4]: 100.095%; %NTCP binding [2, 5]: 43.1125%
N=C(N)c1ccc(OCCCCCOc2ccc(C(=N)N)cc2)cc1 [Pentamidine isethionate] | 65.6% | 74.1% | 
CCCCC1C(=O)N(c2ccccc2)N(c2ccc(O)cc2)C1=O (stereo not shown) [Oxyphenbutazone] | 106% | 90.4% | 
CCOC(=O)[C@H](CCc1ccccc1)N[C@@H](C)C(=O)N1[C@H](C(=O)O)C[C@@H]2CCC[C@@H]21 [Ramipril] | 150% | 94.1% | 
COc1cc(N)c(Cl)cc1C(=O)NC1CCN(Cc2ccccc2)CC1 [Clebopride maleate] | 74% | 52.3% | 
C=CCN1CC[C@]23c4c5ccc(O)c4O[C@H]2C(=O)CC[C@@]3(O)[C@H]1C5 [Naloxone hydrochloride] | 35.5% | 90.1% | 
C#CCN(C)Cc1ccccc1 [Pargyline hydrochloride] | 109% | 84% | 
COc1cc(OC)c(C(=O)CCCN2CCCC2)c(OC)c1.Cl [Buflomedil hydrochloride] |  |  | %NTCP activity [1, 4]: 63.0024%; %NTCP binding [2, 5]: 58.8073%
Cc1nc2n(c(=O)c1CCN1CCC(c3noc4cc(F)ccc34)CC1)CCCC2 [Risperidone] | 57.8% |  | remaining activity at 10 µM ([2]; 0.5 h, read-out: %NTCP binding, Prestwick library screen, 10 µM drug, Myrcludex B-FITC binding): 99.1%
COc1ccc(C(=O)c2ccccc2O)c(O)c1 [Dioxybenzone] | 58.8% | 99% | 
